# Some of the results follow.
# B1: Langerin K313I (Homo sapiens), Q9UJ71 (protein)
# chain: STLNAQIPELKSDLEKASALNTKIRALQGSLENMSKLLKRQNDILQVVSQGWKYFKGNFYYFSLIPKTWYSAEQFCVSRNSHLTSVTSESEQEFLYKTAGGLIYWIGLTKAGMEGDWSWVDDTPFNKVQSARFWIPGEPNNAGNNEHCGNIKAPSLQAWNDAPCDITFLFICKRPYVPSEP
# Experiments:
# Assay in all cases: glycan array binding signal (z-score within array); higher = stronger binding
# Settings in all cases: glycan notation: IUPAC condensed, linker removed
# [1] = molecular target: Fuc(a1-2)Gal(b1-4)[Fuc(a1-3)]GlcNAc
# Procedure, shortened: (§1)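 Glycan array binding is given as a within-array Z-score, which can be read as non-binding when negative. The arrays, 3228 of them, came from the Consortium for Functional Glycomics database and were retained only where the protein sequence was available. Z-scores were averaged across arrays of the same protein sequence at different concentrations or buffers and across linkers.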
# [2] = molecular target: Fuc(a1-2)Gal(b1-4)[Fuc(a1-3)]GlcNAc(b1-2)Man(a1-3)[Fuc(a1-2)Gal(b1-4)[Fuc(a1-3)]GlcNAc(b1-2)Man(a1-6)]Man(b1-4)GlcNAc(b1-4)[Fuc(a1-6)]GlcNAc
# Procedure, shortened: as §1
# [3] = molecular target: Fuc(a1-2)Gal(b1-4)[Fuc(a1-3)]GlcNAc(b1-2)[Fuc(a1-2)Gal(b1-4)[Fuc(a1-3)]GlcNAc(b1-4)]Man(a1-3)[Fuc(a1-2)Gal(b1-4)[Fuc(a1-3)]GlcNAc(b1-2)Man(a1-6)]Man(b1-4)GlcNAc(b1-4)GlcNAc
# Procedure, shortened: as §1
# [4] = molecular target: Fuc(a1-2)Gal(b1-4)[Fuc(a1-3)]GlcNAc(b1-3)Gal(b1-4)[Fuc(a1-3)]GlcNAc
# Procedure, shortened: as §1
# [5] = molecular target: Fuc(a1-2)Gal(b1-4)[Fuc(a1-3)]GlcNAc(b1-3)Gal(b1-4)[Fuc(a1-3)]GlcNAc(b1-3)Gal(b1-4)[Fuc(a1-3)]GlcNAc
# Procedure, shortened: as §1
# [6] = molecular target: Fuc(a1-2)Gal(b1-4)[Fuc(a1-3)]GlcNAc(b1-3)GalNAc
# Procedure, shortened: as §1
# [7] = molecular target: Fuc(a1-2)Gal(b1-4)[Fuc(a1-3)]GlcNAc(b1-3)[Neu5Ac(a2-6)Gal(b1-4)GlcNAc(b1-6)]Gal(b1-4)Glc
# Procedure, shortened: as §1
# [8] = molecular target: Fuc(a1-2)Gal3S(b1-4)GlcNAc
# Procedure, shortened: as §1
# [9] = molecular target: Fuc(a1-2)Gal6S(b1-3)GlcNAc
# Procedure, shortened: as §1
# [10] = molecular target: Fuc(a1-2)Gal6S(b1-3)GlcNAc6S
# Procedure, shortened: as §1
# Fuc(a1-2)Gal6S(b1-4)Glc = molecular target: Fuc(a1-2)Gal6S(b1-4)Glc
# Procedure, shortened: as §1
# [11] = molecular target: Fuc(a1-2)Gal6S(b1-4)Glc6S
# Procedure, shortened: as §1
# Fuc(a1-2)[Gal(a1-3)]Gal = molecular target: Fuc(a1-2)[Gal(a1-3)]Gal
# Procedure, shortened: as §1
# [12] = molecular target: Fuc(a1-2)[Gal(a1-3)]Gal(b1-3)GalNAc
# Procedure, shortened: as §1
# [13] = molecular target: Fuc(a1-2)[Gal(a1-3)]Gal(b1-3)GalNAc(b1-3)Gal(a1-4)Gal(b1-4)Glc
# Procedure, shortened: as §1
# [14] = molecular target: Fuc(a1-2)[Gal(a1-3)]Gal(b1-3)GlcNAc
# Procedure, shortened: as §1
# [15] = molecular target: Fuc(a1-2)[Gal(a1-3)]Gal(b1-3)GlcNAc(b1-2)Man(a1-3)[Fuc(a1-2)[Gal(a1-3)]Gal(b1-3)GlcNAc(b1-2)Man(a1-6)]Man(b1-4)GlcNAc(b1-4)GlcNAc
# Procedure, shortened: as §1
# [16] = molecular target: Fuc(a1-2)[Gal(a1-3)]Gal(b1-3)GlcNAc(b1-2)Man(a1-3)[Fuc(a1-2)[Gal(a1-3)]Gal(b1-3)GlcNAc(b1-2)Man(a1-6)]Man(b1-4)GlcNAc(b1-4)[Fuc(a1-6)]GlcNAc
# Procedure, shortened: as §1
# [17] = molecular target: Fuc(a1-2)[Gal(a1-3)]Gal(b1-3)GlcNAc(b1-3)GalNAc
# Procedure, shortened: as §1
# [18] = molecular target: Fuc(a1-2)[Gal(a1-3)]Gal(b1-3)GlcNAc(b1-6)GalNAc
# Procedure, shortened: as §1
# [19] = molecular target: Fuc(a1-2)[Gal(a1-3)]Gal(b1-4)Glc
# Procedure, shortened: as §1
# [20] = molecular target: Fuc(a1-2)[Gal(a1-3)]Gal(b1-4)GlcNAc
# Procedure, shortened: as §1
# [21] = molecular target: Fuc(a1-2)[Gal(a1-3)]Gal(b1-4)GlcNAc(b1-2)Man
# Procedure, shortened: as §1
# [22] = molecular target: Fuc(a1-2)[Gal(a1-3)]Gal(b1-4)GlcNAc(b1-2)Man(a1-3)[Fuc(a1-2)[Gal(a1-3)]Gal(b1-4)GlcNAc(b1-2)Man(a1-6)]Man(b1-4)GlcNAc(b1-4)GlcNAc
# Procedure, shortened: as §1
# [23] = molecular target: Fuc(a1-2)[Gal(a1-3)]Gal(b1-4)GlcNAc(b1-2)Man(a1-3)[Fuc(a1-2)[Gal(a1-3)]Gal(b1-4)GlcNAc(b1-2)Man(a1-6)]Man(b1-4)GlcNAc(b1-4)[Fuc(a1-6)]GlcNAc
# Procedure, shortened: as §1
# [24] = molecular target: Fuc(a1-2)[Gal(a1-3)]Gal(b1-4)GlcNAc(b1-3)GalNAc
# Procedure, shortened: as §1
# [25] = molecular target: Fuc(a1-2)[Gal(a1-3)]Gal(b1-4)GlcNAc(b1-6)GalNAc
# Procedure, shortened: as §1
# [26] = molecular target: Fuc(a1-2)[Gal(a1-3)]Gal(b1-4)[Fuc(a1-3)]Glc
# Procedure, shortened: as §1
# [27] = molecular target: Fuc(a1-2)[Gal(a1-3)]Gal(b1-4)[Fuc(a1-3)]GlcNAc
# Procedure, shortened: as §1
# [28] = molecular target: Fuc(a1-2)[Gal(a1-3)]Gal(b1-4)[Fuc(a1-3)]GlcNAc(b1-3)GalNAc
# Procedure, shortened: as §1
# [29] = molecular target: Fuc(a1-2)[Gal(a1-4)]Gal(b1-4)GlcNAc
# Procedure, shortened: as §1
# [30] = molecular target: Fuc(a1-2)[GalNAc(a1-3)]Gal
# Procedure, shortened: as §1
# [31] = molecular target: Fuc(a1-2)[GalNAc(a1-3)]Gal(b1-3)GalNAc(a1-3)[Fuc(a1-2)]Gal(b1-4)GlcNAc
# Procedure, shortened: as §1
# [32] = molecular target: Fuc(a1-2)[GalNAc(a1-3)]Gal(b1-3)GalNAc(b1-3)Gal(a1-4)Gal(b1-4)Glc
# Procedure, shortened: as §1
# [33] = molecular target: Fuc(a1-2)[GalNAc(a1-3)]Gal(b1-3)GlcNAc
# Procedure, shortened: as §1
# [34] = molecular target: Fuc(a1-2)[GalNAc(a1-3)]Gal(b1-3)GlcNAc(b1-2)Man(a1-3)[Fuc(a1-2)[GalNAc(a1-3)]Gal(b1-3)GlcNAc(b1-2)Man(a1-6)]Man(b1-4)GlcNAc(b1-4)GlcNAc
# Procedure, shortened: as §1
# [35] = molecular target: Fuc(a1-2)[GalNAc(a1-3)]Gal(b1-3)GlcNAc(b1-2)Man(a1-3)[Fuc(a1-2)[GalNAc(a1-3)]Gal(b1-3)GlcNAc(b1-2)Man(a1-6)]Man(b1-4)GlcNAc(b1-4)[Fuc(a1-6)]GlcNAc
# Procedure, shortened: as §1
# [36] = molecular target: Fuc(a1-2)[GalNAc(a1-3)]Gal(b1-3)GlcNAc(b1-3)GalNAc
# Procedure, shortened: as §1
binder,measurement,setting,value
B1,glycan array binding signal (z-score),[1],-0.24
same,glycan array binding signal (z-score),[2],0.218
same,glycan array binding signal (z-score),[3],0.355
same,glycan array binding signal (z-score),[4],-0.194
same,glycan array binding signal (z-score),[5],-0.042
same,glycan array binding signal (z-score),[6],0.245
same,glycan array binding signal (z-score),[7],-0.355
same,glycan array binding signal (z-score),[8],-0.331
same,glycan array binding signal (z-score),[9],-0.333
same,glycan array binding signal (z-score),[10],-0.086
same,glycan array binding signal (z-score),Fuc(a1-2)Gal6S(b1-4)Glc,-0.226
same,glycan array binding signal (z-score),[11],-0.099
same,glycan array binding signal (z-score),Fuc(a1-2)[Gal(a1-3)]Gal,4.11
same,glycan array binding signal (z-score),[12],-0.254
same,glycan array binding signal (z-score),[13],-0.364
same,glycan array binding signal (z-score),[14],-0.303
same,glycan array binding signal (z-score),[15],-0.164
same,glycan array binding signal (z-score),[16],0.373
same,glycan array binding signal (z-score),[17],0.015
same,glycan array binding signal (z-score),[18],-0.062
same,glycan array binding signal (z-score),[19],-0.289
same,glycan array binding signal (z-score),[20],-0.332
same,glycan array binding signal (z-score),[21],-0.379
same,glycan array binding signal (z-score),[22],-0.102
same,glycan array binding signal (z-score),[23],0.266
same,glycan array binding signal (z-score),[24],0.065
same,glycan array binding signal (z-score),[25],-0.149
same,glycan array binding signal (z-score),[26],-0.335
same,glycan array binding signal (z-score),[27],-0.052
same,glycan array binding signal (z-score),[28],0.214
same,glycan array binding signal (z-score),[29],-0.287
same,glycan array binding signal (z-score),[30],1.78
same,glycan array binding signal (z-score),[31],-0.36
same,glycan array binding signal (z-score),[32],-0.245
same,glycan array binding signal (z-score),[33],-0.341
same,glycan array binding signal (z-score),[34],-0.153
same,glycan array binding signal (z-score),[35],0.282
same,glycan array binding signal (z-score),[36],0.155

# — the supplement of paper PMC8728848
